According to patent US20250154219A1, “PEPTIDE ANALOGS” (Adepthera LLC, priority 2017, published 2025):

Experiments:
[1] = molecular target: CLR/RAMP2 receptor (Homo sapiens, UniProt O60895+Q16602); test: CLR/RAMP2 arrestin assay, antagonist mode (ADM-stimulated); format: cell-based; details: for CLR/RAMP2 Max Activity % of positive control (antagonist): antagonist mode
[2] = molecular target: CLR/RAMP1 receptor (Homo sapiens, UniProt O60894+Q16602); test: CLR/RAMP1 cAMP assay, antagonist mode (CGRP-stimulated); format: cell-based; details: for CLR/RAMP1 Max Activity % of positive control (antagonist): antagonist mode
CLR/RAMP1 receptor, sequence (Q16602 23-461): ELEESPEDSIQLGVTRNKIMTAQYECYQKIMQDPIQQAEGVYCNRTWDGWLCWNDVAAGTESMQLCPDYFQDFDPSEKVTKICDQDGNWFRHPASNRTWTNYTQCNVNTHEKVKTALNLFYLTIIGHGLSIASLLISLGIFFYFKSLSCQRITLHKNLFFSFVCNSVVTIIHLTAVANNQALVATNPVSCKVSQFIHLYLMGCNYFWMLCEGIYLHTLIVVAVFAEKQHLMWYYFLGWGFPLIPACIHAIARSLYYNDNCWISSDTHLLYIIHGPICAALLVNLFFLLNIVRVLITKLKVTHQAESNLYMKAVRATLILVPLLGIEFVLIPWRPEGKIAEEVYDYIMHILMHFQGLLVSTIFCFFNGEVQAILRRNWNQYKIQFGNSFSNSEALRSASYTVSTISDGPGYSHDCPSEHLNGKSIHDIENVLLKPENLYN
CLR/RAMP1 receptor, sequence (O60894 27-148): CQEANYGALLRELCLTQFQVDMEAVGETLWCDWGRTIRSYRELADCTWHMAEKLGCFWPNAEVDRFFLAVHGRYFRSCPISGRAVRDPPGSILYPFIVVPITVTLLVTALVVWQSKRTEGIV

CLR/RAMP2 receptor, sequence (Q16602 23-461): as the sequence (Q16602 23-461) above
CLR/RAMP2 receptor, sequence (O60895 43-175): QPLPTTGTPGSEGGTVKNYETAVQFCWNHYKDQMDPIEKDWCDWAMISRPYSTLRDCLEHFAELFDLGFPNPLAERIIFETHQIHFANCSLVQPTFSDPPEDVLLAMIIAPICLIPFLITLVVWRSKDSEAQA

| SMILES | CLR/RAMP2 Max Activity % of positive control (antagonist) [1] | CLR/RAMP1 Max Activity % of positive control (antagonist) [2] | antagonistic activity toward CLR/RAMP1 and/or CLR/RAMP2, in words ([2]; CLR/RAMP1 and/or CLR/RAMP2) | IC50 [1] [µM] | IC50 [2] [µM] |
| --- | --- | --- | --- | --- | --- |
| CCCCCCCCCCCCCCCC(=O)N[C@@H](CCCCN)C(=O)N[C@H](C(=O)N[C@@H](CCC(N)=O)C(=O)N[C@@H](CCCCN)C(=O)N[C@@H](CC(C)C)C(=O)N[C@@H](C)C(=O)N[C@@H](Cc1c[nH]cn1)C(=O)N[C@@H](CCC(N)=O)C(=O)N[C@H](C(=O)N[C@@H](Cc1ccc(O)cc1)C(=O)N[C@@H](CO)C(=O)N[C@@H](C)C(=O)N1CCC[C@H]1C(=O)N[C@H](C(=O)N[C@@H](CC(=O)O)C(=O)N1CCC[C@H]1C(=O)N[C@@H](CO)C(=O)N[C@@H](CO)C(=O)N1CCC[C@H]1C(=O)N[C@@H](Cc1c[nH]cn1)C(=O)N[C@@H](CO)C(=O)N[C@@H](Cc1ccc(O)cc1)C(N)=O)C(C)C)[C@@H](C)CC)C(C)C [SEQ ID NO: 122] | 100 % of positive control | 95 % of positive control |  |  |  |
| CC[C@H](C)[C@H](NC(=O)[C@H](CCC(N)=O)NC(=O)[C@H](Cc1c[nH]cn1)NC(=O)[C@H](C)NC(=O)[C@H](CC(C)C)NC(=O)[C@H](CCCCN)NC(=O)[C@H](CCC(N)=O)NC(=O)[C@@H](NC(=O)[C@@H](NC(C)=O)[C@@H](C)O)C(C)C)C(=O)N[C@@H](Cc1ccc(O)cc1)C(=O)N[C@@H](CCC(N)=O)C(=O)N[C@@H](Cc1ccccc1)C(=O)N[C@H](C(=O)N[C@@H](CC(=O)O)C(=O)N[C@@H](CCCCN)C(=O)N[C@@H](CC(=O)O)C(=O)N[C@@H](CCCCN)C(=O)N[C@@H](CC(=O)O)C(=O)N[C@@H](CC(N)=O)C(=O)N[C@@H](CO)C(=O)N[C@@H](C)C(=O)N1CCC[C@H]1C(=O)N[C@H](C(=O)N[C@@H](CC(=O)O)C(=O)N1CCC[C@H]1C(=O)N[C@@H](CO)C(=O)N[C@@H](CO)C(=O)N1CCC[C@H]1C(=O)N[C@@H](Cc1c[nH]cn1)C(=O)N[C@@H](CO)C(=O)N[C@@H](Cc1ccc(O)cc1)C(N)=O)C(C)C)[C@@H](C)O [SEQ ID NO: 76] | 101 % of positive control | 106 % of positive control | only mildly improved antagonistic activity |  |  |
| CCCCCCCCCCCCCCCC(=O)N[C@@H](CCCCN)C(=O)N[C@H](C(=O)N[C@@H](CCC(N)=O)C(=O)N[C@@H](CCCCN)C(=O)N[C@@H](CC(C)C)C(=O)N[C@@H](CC(N)=O)C(=O)N[C@@H](Cc1ccccc1)C(=O)N[C@H](C(=O)N1CCC[C@H]1C(=O)N[C@H](C(=O)N[C@@H](CC(N)=O)C(=O)N[C@H](C(=O)NCC(=O)N[C@@H](CO)C(=O)N[C@@H](CCCCN)C(=O)N[C@@H](C)C(=O)N[C@@H](Cc1ccccc1)C(N)=O)C(C)C)[C@@H](C)O)C(C)C)C(C)C [SEQ ID NO: 142] |  |  |  | > 0.2 | < 0.0005 |
| CCCCCCCCCCCCCCCC(=O)N[C@@H](CCCCN)C(=O)N[C@H](C(=O)N[C@@H](CCC(N)=O)C(=O)N[C@@H](CCCCN)C(=O)N[C@@H](CC(C)C)C(=O)N[C@@H](CO)C(=O)N[C@@H](C)C(=O)N1CCC[C@H]1C(=O)N[C@H](C(=O)N[C@@H](CC(=O)O)C(=O)N1CCC[C@H]1C(=O)N[C@@H](CO)C(=O)N[C@@H](CO)C(=O)N1CCC[C@H]1C(=O)N[C@@H](Cc1c[nH]cn1)C(=O)N[C@@H](CO)C(=O)N[C@@H](Cc1ccc(O)cc1)C(N)=O)C(C)C)C(C)C [SEQ ID NO: 139] | 101 % of positive control |  |  |  |  |
| CCCCCCCCCCCCCCCC(=O)N[C@@H](CCCCN)C(=O)N[C@H](C(=O)N[C@@H](CCC(N)=O)C(=O)N[C@@H](CC(N)=O)C(=O)N[C@@H](CC(C)C)C(=O)N[C@@H](CO)C(=O)N[C@@H](C)C(=O)N1CCC[C@H]1C(=O)N[C@H](C(=O)N[C@@H](CC(=O)O)C(=O)N1CCC[C@H]1C(=O)N[C@@H](CO)C(=O)N[C@@H](CO)C(=O)N1CCC[C@H]1C(=O)N[C@@H](Cc1c[nH]cn1)C(=O)N[C@@H](CO)C(=O)N[C@@H](Cc1ccc(O)cc1)C(N)=O)C(C)C)C(C)C [SEQ ID NO: 141] |  |  |  | > 10 |  |
